# The other results are listed elsewhere or left out. One pool of 16,384 single-stranded DNAs met each Rep nickase domain in vitro for 1 h at 37 °C with 3 µM enzyme; only the middle of the 90-letter strands is printed. Values are log2 of uncut reads against the no-enzyme pool; uncut sequences lie near 0, cut ones below; no hit call is given. Shares of all reads are compared; uncut strands gain when others are lost, and binding without cutting may add a little.
# What was measured:
# Assay in all cases: uncleaved DNA left, log2 of reads against the no-enzyme library (log2 ratio); higher = less cleavage (more negative = more Rep cleavage of the k-mer); sequences stand for … in CTCGTCCG…ACCGGAGA
# [1] = tested on: T1, Rep nickase domain of Muscovy duck circovirus
# T1 sequence (Rep 1-111, printed without the tag): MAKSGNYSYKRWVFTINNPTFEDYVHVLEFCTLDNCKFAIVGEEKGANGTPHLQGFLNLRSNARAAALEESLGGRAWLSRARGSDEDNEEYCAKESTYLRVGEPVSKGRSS
# Procedure: (§1)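 A pool of 90-nt single-stranded DNAs with seven random bases just before the constant AC of the nick site (name = the seven bases) was cut by 3 µM recombinant His6-SUMO-tagged Rep nickase domain (300 nM DNA, 50 mM HEPES pH 8.0, 50 mM NaCl, 1 mM MnCl2, 1 h, 37 °C, three replicates). Uncut DNA was amplified and sequenced.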
# [2] = tested on: T2, Rep nickase domain of banana bunchy top virus
# T2 sequence (Rep 1-94, printed without the tag): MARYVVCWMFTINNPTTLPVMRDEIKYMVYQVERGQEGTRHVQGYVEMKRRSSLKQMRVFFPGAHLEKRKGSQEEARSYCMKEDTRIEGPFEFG
# Procedure: as §1
# [3] = tested on: T3, Rep nickase domain of cabbage leaf curl virus
# T3 sequence (Rep 1-116, printed without the tag): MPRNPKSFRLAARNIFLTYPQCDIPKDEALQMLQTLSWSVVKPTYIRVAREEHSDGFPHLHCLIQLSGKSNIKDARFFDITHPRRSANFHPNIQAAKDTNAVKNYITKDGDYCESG
# Procedure: as §1
# [4] = tested on: T4, Rep nickase domain of chickpea chlorotic dwarf virus
# T4 sequence (Rep 1-124, printed without the tag): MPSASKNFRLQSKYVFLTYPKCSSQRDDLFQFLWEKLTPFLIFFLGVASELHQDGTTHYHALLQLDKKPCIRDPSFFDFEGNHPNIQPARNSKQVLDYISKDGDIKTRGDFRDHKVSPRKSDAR
# Procedure: as §1
# [5] = tested on: T5, Rep nickase domain of faba bean necrotic yellows virus
# T5 sequence (Rep 1-98, printed without the tag): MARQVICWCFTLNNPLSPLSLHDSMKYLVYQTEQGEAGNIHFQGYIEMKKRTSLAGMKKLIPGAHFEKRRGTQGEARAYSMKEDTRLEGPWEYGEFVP
# Procedure: as §1
# [6] = tested on: T6, Rep nickase domain of maize striate mosaic virus
# T6 sequence (Rep 1-117, printed without the tag): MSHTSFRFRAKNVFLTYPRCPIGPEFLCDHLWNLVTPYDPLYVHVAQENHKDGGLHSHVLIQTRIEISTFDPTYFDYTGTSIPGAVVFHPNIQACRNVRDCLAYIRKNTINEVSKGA
# Procedure: as §1
# [7] = tested on: T7, Rep nickase domain of porcine circovirus 2
# T7 sequence (Rep 2-116, printed without the tag): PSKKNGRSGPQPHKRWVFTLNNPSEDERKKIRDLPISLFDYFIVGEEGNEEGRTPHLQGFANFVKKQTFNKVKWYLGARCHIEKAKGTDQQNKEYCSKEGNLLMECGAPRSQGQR
# Procedure: as §1
# [8] = tested on: T8, Rep nickase domain of tomato golden mosaic virus
# T8 sequence (Rep 1-124, printed without the tag): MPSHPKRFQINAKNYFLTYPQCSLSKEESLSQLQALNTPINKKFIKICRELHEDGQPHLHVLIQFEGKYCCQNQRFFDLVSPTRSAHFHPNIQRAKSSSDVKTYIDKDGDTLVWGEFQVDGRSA
# Procedure: as §1
# [9] = tested on: T9, Rep nickase domain of tomato yellow leaf curl virus
# T9 sequence (Rep 1-136, printed without the tag): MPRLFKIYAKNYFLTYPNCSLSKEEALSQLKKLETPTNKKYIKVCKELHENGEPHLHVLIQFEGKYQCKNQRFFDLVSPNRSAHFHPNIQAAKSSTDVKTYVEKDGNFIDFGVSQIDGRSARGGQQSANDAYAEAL
# Procedure: as §1
# [10] = tested on: T10, Rep nickase domain of wheat dwarf virus
# T10 sequence (Rep 1-137, printed without the tag): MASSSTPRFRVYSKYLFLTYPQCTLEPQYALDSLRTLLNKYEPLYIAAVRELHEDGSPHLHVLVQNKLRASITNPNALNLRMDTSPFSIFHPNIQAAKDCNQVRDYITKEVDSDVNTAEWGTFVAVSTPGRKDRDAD
# Procedure: as §1
Sequence,uncleaved DNA left (log2) [1],uncleaved DNA left (log2) [2],uncleaved DNA left (log2) [3],uncleaved DNA left (log2) [4],uncleaved DNA left (log2) [5],uncleaved DNA left (log2) [6],uncleaved DNA left (log2) [7],uncleaved DNA left (log2) [8],uncleaved DNA left (log2) [9],uncleaved DNA left (log2) [10]
AAGGATG,-0.0237,-0.0528,0.207,0.777,0.057,0.243,0.0707,0.104,-0.0709,0.0649
AGTCCAG,0.143,0.136,-0.413,-0.266,0.101,-0.874,0.134,0.104,0.204,0.107
GATTCGA,0.0285,-0.066,-0.397,-0.39,-0.111,-0.85,-0.0122,-0.174,-0.0967,-0.121
GCAAATG,-0.0404,-0.0542,-0.282,0.0566,0.12,-0.52,0.109,0.0779,-0.0789,-0.0224
GAAACGA,0.0367,0.0439,0.155,0.222,-0.0289,-0.255,0.0777,-0.0345,0.0322,0.106
TGCGGAT,-0.0938,-0.179,0.152,1.15,-0.147,1.5,0.13,0.0499,-0.113,-0.0397
TATGTGC,0.0625,-0.142,-0.692,-0.692,-0.0064,-1.23,0.0465,-0.161,-0.0315,-0.0873
AAATTGT,-1.31,0.0282,-3.95,-3.27,0.099,-2.98,-3.91,-2.72,0.121,-3.02
CCCCGCC,-0.126,0.000558,0.019,-0.267,-0.0948,-0.551,-0.00563,-0.0463,-0.044,-0.197
GATCTAT,-0.0417,-0.0134,0.284,0.527,-0.03,1.21,-0.134,0.0885,0.101,0.166
TACTTAC,0.0782,-0.00622,-0.109,-2.05,0.0186,-0.566,-0.487,-0.0793,-0.0342,0.0419
TGAGGGC,-0.0793,-0.0598,0.219,0.594,0.0479,0.526,0.0279,0.0148,-0.103,-0.0812
AACGAAA,0.0201,0.0745,-0.0734,-0.35,0.0796,-0.583,-0.00499,-0.0712,0.00799,-0.0526
GCAGGAA,0.222,0.134,0.465,1.28,0.119,1.22,0.189,0.157,-0.0131,0.215
TACACGA,-0.0347,-0.0292,-0.385,-0.869,0.055,-1.13,0.11,-0.018,-0.0278,-0.0417
CTTAGGT,0.062,0.0501,0.445,1.08,0.128,1.21,0.156,-0.0381,0.16,-0.00382
CAGTCCG,-0.0452,0.0272,-0.761,-0.0381,0.114,-0.764,-0.129,-0.132,0.0236,-0.149
TCGATAC,0.0767,-0.0149,0.0967,-0.343,0.0816,-0.478,0.207,-0.0394,0.0199,0.017
CGGGCAA,0.159,0.0929,0.824,1.85,0.063,2.15,0.158,0.0061,0.109,0.172
GTCTCTC,0.133,0.0136,0.365,0.935,0.00359,1.64,0.106,0.0992,0.0892,0.0654

Sequence,uncleaved DNA left (log2) [1],uncleaved DNA left (log2) [2],uncleaved DNA left (log2) [3],uncleaved DNA left (log2) [4],uncleaved DNA left (log2) [5],uncleaved DNA left (log2) [6],uncleaved DNA left (log2) [7],uncleaved DNA left (log2) [8],uncleaved DNA left (log2) [9],uncleaved DNA left (log2) [10]
CTTTATT,-3.25,-3.34,-0.787,-3,-0.307,-0.682,-3.91,-0.705,-0.0238,-0.898
CTCCTAT,-0.0892,-0.159,-0.117,-1.03,-0.163,-0.567,-0.483,-0.16,-0.108,-0.131
AGGAAGC,0.188,0.126,0.14,0.264,0.00382,-0.42,0.214,0.133,0.13,0.0853
AAAAGCT,-0.0375,-0.0492,-0.86,-1.81,-0.0394,-0.306,-0.0553,-0.0275,-0.0213,-0.117
CCGACAT,0.0677,0.129,0.563,1.53,-0.066,1.78,0.229,0.0798,0.0424,0.161
TACTTTC,-0.956,-0.00618,-0.269,-1.48,-0.00035,-0.716,-2.42,-0.156,0.0183,0.0491
GGGGTTG,0.101,0.034,0.65,1.39,0.0375,1.94,0.198,0.0581,-0.0386,0.0841
TCCTCTG,0.0198,-0.187,-0.172,-0.196,-0.0529,-0.275,-0.104,-0.179,-0.0331,-0.0582
TCTAGAC,0.0208,-0.197,0.213,0.0464,0.0112,0.0638,0.118,-0.0172,-0.104,-0.0386
GAGATCA,0.0297,0.158,0.573,0.902,0.0985,1.64,-0.334,0.0747,0.0518,0.26
AGGTACT,-1.63,-0.264,0.00215,-0.608,-0.282,1.04,-3.26,-0.0413,0.124,0.0185
TTGCCCA,-0.593,-0.348,-0.319,-0.832,-0.0942,-0.834,-2.05,-0.0386,0.0641,-0.0251
TGACTGG,0.0588,-0.00702,0.0403,0.572,0.00843,1.14,0.0455,-0.106,-0.141,0.0431
CCCACAA,-0.101,-0.0449,0.0286,-0.532,-0.0124,-0.764,0.028,-0.0809,-0.0281,-0.00536
AAACAAT,0.0468,0.215,-0.274,-2.13,0.1,0.107,-0.16,0.218,0.0892,-0.046
CGGCATG,0.0143,-0.0985,-0.0935,0.548,-0.16,1.13,0.00215,0.0373,-0.19,-0.094
CCACTCA,0.000386,0.0436,0.00143,-1.36,-0.0315,-0.761,0.0144,-0.123,0.0326,0.0204
ATGCACA,-0.0333,-0.0217,-0.266,-0.921,0.000899,-0.76,-0.0312,-0.00478,-0.0635,-0.0015
GCTTTTC,-0.101,-0.0268,0.141,0.401,-0.0461,0.0154,-0.0142,-0.00674,-0.0465,-0.0315
GTTAACG,0.0951,0.0232,-0.44,-0.523,0.0359,-0.734,0.162,0.0952,-0.00696,-0.0206

Sequence,uncleaved DNA left (log2) [1],uncleaved DNA left (log2) [2],uncleaved DNA left (log2) [3],uncleaved DNA left (log2) [4],uncleaved DNA left (log2) [5],uncleaved DNA left (log2) [6],uncleaved DNA left (log2) [7],uncleaved DNA left (log2) [8],uncleaved DNA left (log2) [9],uncleaved DNA left (log2) [10]
TCGATGA,0.125,-0.212,0.0501,0.299,0.083,0.175,-0.0027,-0.103,-0.0828,-0.116
ATTTAGG,0.0159,0.0184,0.332,1.28,0.0387,1.24,0.065,0.0644,-0.0758,-0.0591
ACTTCAG,0.0958,0.0486,-0.852,-0.328,0.115,-1.15,0.237,0.06,0.109,-0.038
TTCCGAG,-0.00983,0.0332,0.876,1.02,0.0136,2.27,0.194,-0.0149,0.00131,0.143
GCGGCCG,-0.00514,-0.0401,-0.534,-0.372,0.0772,-0.468,0.0626,0.0099,-0.114,-0.0931
TTTTCCC,-0.182,-0.101,0.0984,-0.437,-0.144,-0.363,-0.328,-0.155,-0.0747,-0.147
TCTCGCT,0.0353,-0.218,-0.356,-1.32,-0.00364,-1.18,-0.142,-0.0452,-0.0612,-0.195
CTGATGA,0.0599,-0.0303,-0.114,-0.0356,-0.0477,-0.859,0.0935,0.00735,-0.0879,-0.0339
TCGCTCG,0.0125,0.0902,0.434,2.23,0.101,1.1,0.108,0.0322,-0.00351,0.0575
CCACATA,0.0288,0.104,-0.0662,-0.919,0.0389,-0.493,0.0842,-0.0398,0.0999,0.0322
GTTATAA,0.0785,0.134,0.324,0.829,0.0682,1.78,0.161,0.151,0.119,0.0992
TGCCAGC,0.0109,0.0325,0.125,-0.0102,-0.00943,-0.354,0.0427,-0.0487,-0.0514,0.0833
ACGCACG,-0.0025,-0.0308,-0.69,0.0407,-0.0363,-0.796,0.207,-0.0167,0.0015,0.0577
AACCACC,-0.143,-0.0296,-0.0885,-1.19,-0.0625,-0.679,-0.429,-0.0594,-0.0383,0.047
GAAGCAG,0.0902,-0.0125,-0.116,0.00543,0.0164,-0.448,0.206,-0.00324,-0.0141,-0.0602
CTAATGG,0.00207,0.0197,-0.0217,0.392,-0.0201,-0.521,0.0899,0.0192,-0.00973,0.0691
GATTACT,-3.14,-2.91,-0.446,-2.52,-1.4,0.474,-3.11,-0.652,0.0731,-0.111
AAGACGA,0.134,0.0169,0.171,0.368,0.0794,-0.175,0.168,0.06,0.115,0.0587
CCTTTGT,-0.0868,0.0824,-0.254,-0.829,0.22,-0.994,-0.437,-0.0738,0.0625,-0.0434
TGGGACC,-0.0779,0.0192,0.911,1.96,0.0654,2.2,0.235,-0.0255,0.00224,0.139
